Biological target: indoleamine 2, 3-dioxygenase (IDO1) (Homo sapiens, UniProt P14902)
Experiment: IDO1 PBMC RapidFire MS Assay (kynurenine by mass spectrometry)
Type: cell-based
Conditions: human PBMC stimulated with IFN-γ and LPS, 2 days; recorded as pIC50; read-out: IDO1 PBMC PXC50 (converted)
Description: IDO1 PBMC RapidFire MS Assay
Compounds of the present invention were tested via high-throughput cellular assays utilizing detection of kynurenine via mass spectrometry and cytotoxicity as end-points. […] Compounds with IDO1 inhibitory properties decreased the amount of kynurenine produced by the cells via the tryptophan catabolic pathway. Cellular toxicity due to the effect of compound treatment was measured using CellTiter-Glo® reagent (CTG) (Promega Corporation, Madison, Wis.), which is based on luminescent detection of ATP, an indicator of metabolically active cells.
In preparation for the assays, test compounds were serially diluted 3-fold in DMSO from a typical top concentration of 1 mM or 5 mM and plated at 0.5 μL in 384-well, polystyrene, clear bottom, tissue culture treated plates with lids (Greiner Bio-One, Kremsmünster, Austria) to generate 11-point dose response curves. Low control wells (0% kynurenine or 100% cytotoxicity) contained either 0.5 μL of DMSO in the presence of unstimulated (−IFN-γ/−LPS) PBMCs for the mass spectrometry assay or 0.5 μL of DMSO in the absence of cells for the cytotoxicity assay, and high control wells (100% kynurenine or 0% cytotoxicity) contained 0.5 μL of DMSO in the presence of stimulated (+IFN-γ/+LPS) PBMCs for both the mass spectrometry and cytotoxicity assays.
Frozen stocks of PBMCs were washed and recovered in RPMI 1640 medium (Thermo Fisher Scientific, Inc., Waltham, Mass.) supplemented with 10% v/v heat-inactivated fetal bovine serum (FBS) (Thermo Fisher Scientific, Inc., Waltham, Mass.), and 1× penicillin-streptomycin antibiotic solution (Thermo Fisher Scientific, Inc., Waltham, Mass.). The cells were diluted to 1,000,000 cells/mL in the supplemented RPMI 1640 medium. 50 μL of either the cell suspension, for the mass spectrometry assay, or medium alone, for the cytotoxicity assay, were added to the low control wells, on the previously prepared 384-well compound plates, resulting in 50,000 cells/well or 0 cells/well respectively. IFN-γ and LPS were added to the remaining cell suspension at final concentrations of 100 ng/ml and 50 ng/ml respectively, and 50 μL of the stimulated cells were added to all remaining wells on the 384-well compound plates. The plates, with lids, were then placed in a 37° C., 5% CO2 humidified incubator for 2 days.
Following incubation, the 384-well plates were removed from the incubator and allowed to equilibrate to room temperature for 30 minutes. For the cytotoxicity assay, CellTiter-Glo® was prepared according to the manufacturer's instructions, and 40 μL were added to each plate well. After a twenty minute incubation at room temperature, luminescence was read on an EnVision® Multilabel Reader (PerkinElmer Inc., Waltham, Mass.). For the mass spectrometry assay, 10 μL of supernatant from each well of the compound-treated plates were added to 40 μL of acetonitrile, containing 10 μM of an internal standard for normalization, in 384-well, polypropylene, V-bottom plates (Greiner Bio-One, Kremsmünster, Austria) to extract the organic analytes. Following centrifugation at 2000 rpm for 10 minutes, 10 μL from each well of the acetonitrile extraction plates were added to 90 μL of sterile, distilled H2O in 384-well, polypropylene, V-bottom plates for analysis of kynurenine and the internal standard on the RapidFire 300 (Agilent Technologies, Santa Clara, Calif.) and 4000 QTRAP MS (SCIEX, Framingham, Mass.). MS data were integrated using Agilent Technologies' RapidFire Integrator software, and data were normalized for analysis as a ratio of kynurenine to the internal standard.

Sequence of UniProt P14902 (P14902 whole entry): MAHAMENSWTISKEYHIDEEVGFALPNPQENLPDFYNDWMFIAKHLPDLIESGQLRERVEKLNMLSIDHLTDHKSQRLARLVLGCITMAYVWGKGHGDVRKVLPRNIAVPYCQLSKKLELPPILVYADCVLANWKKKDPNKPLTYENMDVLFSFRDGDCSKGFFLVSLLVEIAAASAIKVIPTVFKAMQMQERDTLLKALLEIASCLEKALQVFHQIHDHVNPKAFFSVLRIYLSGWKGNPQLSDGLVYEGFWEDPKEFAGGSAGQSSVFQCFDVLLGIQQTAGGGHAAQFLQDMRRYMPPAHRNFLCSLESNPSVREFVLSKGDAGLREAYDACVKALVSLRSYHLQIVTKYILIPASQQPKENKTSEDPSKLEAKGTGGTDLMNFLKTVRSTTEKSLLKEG

IC50 | Compound
7.94 nM | CO[C@H]1CC[C@H](N(CC(C)C)c2ncc([C@H](C)CC(=O)O)cc2Nc2ccc(Cl)cn2)CC1 [Example 27, (R)-3-(5-((5-chloropyridin-2-yl)amino)-6-(isobutyl((1r,4R)-4-methoxycyclohexyl)amino)pyridin-3-yl)butanoic acid]
5.01 nM | CC(C)CN(c1ncc([C@H](C)CC(=O)O)cc1Nc1nc(C(F)(F)F)ns1)[C@H]1CC[C@H](O)CC1 [Example 28, (R)-3-(6-(((1r,4R)-4-hydroxycyclohexyl)(isobutyl)amino)-5-((3-(trifluoromethyl)-1,2,4-thiadiazol-5-yl)amino)pyridin-3-yl)butanoic acid]
5.01 nM | CC(C)CN(c1ncc(-c2ccccc2C(=O)O)cc1Nc1nc(C(F)(F)F)ns1)C1CCOCC1 [Example 29, 2-(6-(isobutyl(tetrahydro-2H-pyran-4-yl)amino)-5-((3-(trifluoromethyl)-1,2,4-thiadiazol-5-yl)amino)pyridin-3-yl)benzoic acid]
3.98 nM | CC(C)CN(c1ncc([C@H](C)CC(=O)O)cc1Nc1nc(Cl)ns1)C1CCC(F)(F)CC1 [Example 30, (R)-3-(5-((3-chloro-1,2,4-thiadiazol-5-yl)amino)-6-((4,4-difluorocyclohexyl)(isobutyl)amino)pyridin-3-yl)butanoic acid]
2 nM | CC(C)CN(c1ncc(C(C)CC(=O)O)cc1Nc1nc(C(F)(F)F)ns1)C1CCOCC1 (stereo not shown) [Example 31, 3-{6-[(2-methylpropyl)(oxan-4-yl)amino]-5-{[3-(trifluoromethyl)-1,2,4-thiadiazol-5-yl]amino}pyridin-3-yl}butanoic acid]
20 nM | CC(C)CN(CC(C)C)c1ncc(C(C)CC(=O)O)cc1Nc1nc(Cl)ns1 (stereo not shown) [Example 32, 3-{6-[bis(2-methylpropyl)amino]-5-[(3-chloro-1,2,4-thiadiazol-5-yl)amino]pyridin-3-yl}butanoic acid]
10 nM | CC(C)CN(c1ncc(C(C)CC(=O)O)cc1Nc1ccc(C#N)cn1)C1CCOCC1 (stereo not shown) [Example 33, 3-{5-[(5-cyanopyridin-2-yl)amino]-6-[(2-methylpropyl)(oxan-4-yl)amino]pyridin-3-yl}butanoic acid]
12.6 nM | CC(C)CN(c1ncc(C(C)CC(=O)O)cc1Nc1nc(Cl)ns1)C1CCOCC1 (stereo not shown) [Example 34, 3-{5-[(3-chloro-1,2,4-thiadiazol-5-yl)amino]-6-[(2-methylpropyl)(oxan-4-yl)amino]pyridin-3-yl}butanoic acid]
3.16 nM | CC(C)CN(c1ncc(C(C)CC(=O)O)cc1Nc1ccc(Cl)cn1)C1CCOCC1 (stereo not shown) [Example 35, 3-{5-[(5-chloropyridin-2-yl)amino]-6-[(2-methylpropyl)(oxan-4-yl)amino]pyridin-3-yl}butanoic acid]
6.31 nM | CC(C)CN(c1ncc(C(C)CC(=O)O)cc1Nc1nnc(C2CC2)s1)C1CCOCC1 (stereo not shown) [Example 36, 3-{5-[(5-cyclopropyl-1,3,4-thiadiazol-2-yl)amino]-6-[(2-methylpropyl)(oxan-4-yl)amino]pyridin-3-yl}butanoic acid]
20 nM | CC(C)CN(c1ncc(C(C)CC(=O)O)cc1Nc1nc(C2CC2)ns1)C1CCOCC1 (stereo not shown) [Example 37, 3-{5-[(3-cyclopropyl-1,2,4-thiadiazol-5-yl)amino]-6-[(2-methylpropyl)(oxan-4-yl)amino]pyridin-3-yl}butanoic acid]
20 nM | CC(C)CN(c1ncc([C@H](C)CC(=O)O)cc1Nc1nnc(C2CC2)s1)C1CCOCC1 [Example 38, (3R)-3-{5-[(5-cyclopropyl-1,3,4-thiadiazol-2-yl)amino]-6-[(2-methylpropyl)(oxan-4-yl)amino]pyridin-3-yl}butanoic acid]
12.6 nM | CC(C)CN(c1ncc([C@H](C)CC(=O)O)cc1Nc1nc(Cl)ns1)C1CCOCC1 [Example 39, (3R)-3-{5-[(3-chloro-1,2,4-thiadiazol-5-yl)amino]-6-[(2-methylpropyl)(oxan-4-yl)amino]pyridin-3-yl}butanoic acid]
158 nM | CC(C)CN(CC(C)C)c1ncc([C@H](C)CC(=O)O)cc1Nc1nc(C(F)(F)F)ns1 [Example 40, (3R)-3-{6-[bis(2-methylpropyl)amino]-5-{[3-(trifluoromethyl)-1,2,4-thiadiazol-5-yl]amino}pyridin-3-yl}butanoic acid]
20 nM | CC(C)CN(c1ncc([C@H](C)CC(=O)O)cc1Nc1nc(C2CC2)ns1)C1CCOCC1 [Example 41, (3R)-3-{5-[(3-cyclopropyl-1,2,4-thiadiazol-5-yl)amino]-6-[(2-methylpropyl)(oxan-4-yl)amino]pyridin-3-yl}butanoic acid]
158 nM | CC(C)CN(c1ncc([C@H](C)CC(=O)O)cc1Nc1n[nH]c(C(F)(F)F)n1)C1CCOCC1 [Example 42, (3R)-3-{6-[(2-methylpropyl)(oxan-4-yl)amino]-5-{[5-(trifluoromethyl)-1H-1,2,4-triazol-3-yl]amino}pyridin-3-yl}butanoic acid]
3160 nM | CC(C)CN(c1ncc([C@H](C)CC(=O)O)cc1Nc1n[nH]c(C#N)n1)C1CCOCC1 [Example 43, (3R)-3-{5-[(5-cyano-1H-1,2,4-triazol-3-yl)amino]-6-[(2-methylpropyl)(oxan-4-yl)amino]pyridin-3-yl}butanoic acid]
6310 nM | CC(C)CN(c1ncc([C@H](C)CC(=O)O)cc1Nc1n[nH]c(C(N)=O)n1)C1CCOCC1 [Example 44, (3R)-3-{5-[(5-carbamoyl-1H-1,2,4-triazol-3-yl)amino]-6-[(2-methylpropyl)(oxan-4-yl)amino]pyridin-3-yl}butanoic acid]
15.8 nM | Cc1nnc(Nc2cc([C@H](C)CC(=O)O)cnc2N(CC(C)C)C2CCCCC2)s1 [Example 45, (3R)-3-{6-[cyclohexyl(2-methylpropyl)amino]-5-[(5-methyl-1,3,4-thiadiazol-2-yl)amino]pyridin-3-yl}butanoic acid]
12.6 nM | COC1CCC(N(CC(C)C)c2ncc(C(C)CC(=O)O)cc2Nc2nc(Cl)ns2)CC1 (stereo not drawn) [Example 46, (3RS)-3-{5-[(3-chloro-1,2,4-thiadiazol-5-yl)amino]-6-[(2-methylpropyl)[(1rs&,4rs&)-4-methoxycyclohexyl]amino]pyridin-3-yl}butanoic acid]
251 nM | COCc1ccc(Nc2cc(C(C)CC(=O)O)cnc2N(CC(C)C)C2CCC(OC)CC2)nc1 (stereo not drawn) [Example 47, (3RS)-3-(5-{[5-(methoxymethyl)pyridin-2-yl]amino}-6-[(2-methylpropyl)[(1rs&,4rs&)-4-methoxycyclohexyl]amino]pyridin-3-yl)butanoic acid]
200 nM | CC(C)CN(c1ncc([C@H](C)CC(=O)O)cc1Nc1nc(C(F)(F)F)c[nH]1)C1CCOCC1 [Example 48, (3R)-3-{6-[(2-methylpropyl)(oxan-4-yl)amino]-5-{[4-(trifluoromethyl)-1H-imidazol-2-yl]amino}pyridin-3-yl}butanoic acid]
794 nM | COCc1nnc(Nc2cc([C@H](C)CC(=O)O)cnc2N(CC(C)C)C2CCOCC2)s1 [Example 49, (3R)-3-(5-{[5-(methoxymethyl)-1,3,4-thiadiazol-2-yl]amino}-6-[(2-methylpropyl)(oxan-4-yl)amino]pyridin-3-yl)butanoic acid]
158 nM | COC(=O)c1c[nH]c(Nc2cc([C@H](C)CC(=O)O)cnc2N(CC(C)C)C2CCOCC2)n1 [Example 50, (3R)-3-(5-{[4-(methoxycarbonyl)-1H-imidazol-2-yl]amino}-6-[(2-methylpropyl)(oxan-4-yl)amino]pyridin-3-yl)butanoic acid]
39.8 nM | CC(C)CN(CC(C)C)c1ncc([C@H](C)CC(=O)O)cc1Nc1nnc(C(F)(F)F)s1 [Example 51, (3R)-3-{6-[bis(2-methylpropyl)amino]-5-{[5-(trifluoromethyl)-1,3,4-thiadiazol-2-yl]amino}pyridin-3-yl}butanoic acid]

— patent US10787442B2, “Modulators of indoleamine 2,3-dioxygenase” (GLAXOSMITHKLINE INTELLECTUAL PROPERTY DEVELOPMENT LIMITED, priority 2016, dated 2020)
